Consider three molecules from patent US20020147326A1 (GlaxoSmithKline, published 2002).

The target of test [1] is T1, CTLA4-Ig (human, UniProt P16410 36-161).
T1 construct: also called CTLA4-Fc; not shown: human IgG1 heavy chain Fc region (hinge, CH2, CH3) of vector COSFcLink
Put plainly: isothermal titration calorimetry, in solution, 44° C.

For test [2], the target named is T1, CTLA4-Ig. The test is described as follows: ELISA: immobilized CTLA4-Ig, biotinylated protein titrated, OD 405.
For test [3], the target named is T1, CTLA4-Ig. Put plainly: isothermal titration calorimetry at 44° C., Kd corrected to 37° C. by the van't Hoff equation. (In general: ITC needs no label: the signal is the heat of the interaction.)
For test [4], the target named is T1, CTLA4-Ig. The test is described as follows: isothermal titration calorimetry, in solution, 37° C.
For test [5], the target named is T2, CD28-Ig (human, UniProt P10747 19-152).
T2 construct: extracellular domain; also called CD28-Fc; not shown: human IgG1 heavy chain Fc region (hinge, CH2, CH3) from cell line ARH-77, beginning at the start of the hinge (EPKSA...)
The test is described as follows: SPR (BIAcore), about 4000 RU CD28-Ig amine coupled, analyte 20 ug/ml. (In general: In SPR one partner is held on a chip, and binding of the other changes the refractive index at the surface.)

Test [6] concerns the target T2, CD28-Ig. Put plainly: ELISA: CD28-Ig coated on wells (curve CD28-400), biotinylated CD80-Igαtp titrated, streptavidin-HRP, OD 405. For orientation: ELISA stands for enzyme-linked immunosorbent assay.
The target in test [7] is T1, CTLA4-Ig. The test is described as follows: isothermal titration calorimetry, Kd at 37° C., measured at 37° C.
In test [8] the target is T2, CD28-Ig. The test is described as follows: ELISA: CD28-Ig coated on wells (curve CD28-200), biotinylated CD80-Igαtp titrated, streptavidin-HRP, OD 405.

T1 sequence (P16410 other isoform, or with tags, fused parts or gaps): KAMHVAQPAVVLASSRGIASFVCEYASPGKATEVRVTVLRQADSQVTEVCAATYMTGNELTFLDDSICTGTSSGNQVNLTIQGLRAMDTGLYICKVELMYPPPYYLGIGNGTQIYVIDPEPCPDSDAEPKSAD

B1: CD80-Ig (Fc fusion)
chain: VIHVTKEVKEVATLSCGHNVSVEELAQTRIYWQKEKKMVLTMMSGDMNIWPEYKNRTIFDITNNLSIVILALRPSDEGTYECVVLKYEKDAFKREHLAEVTLSVKADFPTPSISDFEIPTSNIRRIICSTSGGFPEPHLSWLENGEELNAINTTVSQDPETELYAVSSKLDFNMTTNHSFMCLIKYGHLRVNQTFNWNTTKQEHFPDQ[omitted - human IgG1 Fc with C220A (EU numbers)]
modifications: biotinylated in the direct ELISA (FIGS. 10, 11); disulfide-linked Ig homodimer
notes: also called B7Ig; B7.1-Ig
By Kd is commonly meant the equilibrium constant for the complex coming apart. For orientation: EC50 (read off the curve) means the midpoint of the concentration-response curve. As to B1, the Kd turned out to be 4.9 nM in the test with CTLA4-Ig [1], 2 nM with CTLA4-Ig [3] and 5.4 nM with CTLA4-Ig [4]. The “Molar Ratio (CTLA4-Ig per construct)” value with CTLA4-Ig [1] was 0.6; in the test with CTLA4-Ig [4] it was 0.72. Also, the ΔH with CTLA4-Ig [1] was -36 kcal/mol; with CTLA4-Ig [4], -32 kcal/mol. Moreover, the “EC50 (read off the curve)” value in the test with CTLA4-Ig [2] was approximately 0.02 µg/mL.

B2: CD80-Igαtp (Fc fusion)
chain: VIHVTKEVKEVATLSCGHNVSVEELAQTRIYWQKEKKMVLTMMSGDMNIWPEYKNRTIFDITNNLSIVILALRPSDEGTYECVVLKYEKDAFKREHLAEVTLSVKADFPTPSISDFEIPTSNIRRIICSTSGGFPEPHLSWLENGEELNAINTTVSQDPETELYAVSSKLDFNMTTNHSFMCLIKYGHLRVNQTFNWNTTKQEHFPDQ[omitted - human IgG1 Fc with changes]PTHVNVSVVMAEVDGTCY
modifications: biotinylated in the ELISA formats (about 10 biotin per CD80-Ig monomer); unlabelled in BIAcore, flow cytometry and calorimetry
notes: Junction HFPDq/EPKSA (Gln for the native Asn); Cys to Ala in the upper hinge; also called B7-FcA; B7FcA
Consider B2, for which the “rate of dissociation against CD80-Ig” value in the test with CD28-Ig [5] is approximately 1000 fold slower. Also, the equilibrium dissociation constant (Kd) is 8.1 nM in the test with CTLA4-Ig [1], 2 nM with CTLA4-Ig [3], 6 nM in the test with CTLA4-Ig [7] and 5.9 nM with CTLA4-Ig [4]. Besides, the “Molar Ratio (CTLA4-Ig per construct)” value amounted to 3.79 in the test with CTLA4-Ig [1] and 4.02 with CTLA4-Ig [4]. Besides, the ΔH with CTLA4-Ig [1] was -38 kcal/mol; with CTLA4-Ig [4], -36 kcal/mol. Moreover, the entries for the “EC50 (read off the curve)” value in the test with CTLA4-Ig [2], in the test with CD28-Ig [6] and with CD28-Ig [8] were approximately 0.004 µg/mL, approximately 0.03 µg/mL and approximately 0.04 µg/mL, respectively.

B3: CD86-Igαtp (Fc fusion)
chain (part 1 of 2): APLKIQAYFNETADLPCQFANSQNQSLSELVVFWQDQENLVLNEVYLGKEKFDSVHSKYMGRTSFDSDSWTLRLHNLQIKDKGLYQCIIHHKKPTGMIRIHQMNSELSVLANFSQPEIVPISNITENVYINLTCSSIHGYPEPKKMSVLLRTKNSTIEYDGIMQKSQDNVTELYDVSISLSVSFPDVTSNMTIFCILETDKTRLLSSPFSIELEDPQPPPDH[omitted - human IgG1 Fc with changes]PTHVNVSVVMAEVDGTCY
modifications: biotinylated in the ELISA formats
notes: also called B7.2-IgA; hexameric CD86; not shown: human IgG1 heavy chain Fc region (hinge, CH2, CH3), same as in CD80Fcαtplink
With B3, the Kd in the test with CTLA4-Ig [1] came out at 38 nM; with CTLA4-Ig [3], 9 nM; in the test with CTLA4-Ig [7], 20 nM; with CTLA4-Ig [4] it was 20 nM. Also, the “Molar Ratio (CTLA4-Ig per construct)” value worked out at 2.83 with CTLA4-Ig [1] and 2.72 with CTLA4-Ig [4]. Also, the ΔH with CTLA4-Ig [1] is -41 kcal/mol; with CTLA4-Ig [4], -37 kcal/mol. For the same molecule, the “EC50 (read off the curve)” value with CTLA4-Ig [2] is approximately 0.01 µg/mL.
